The campaign covered roughly 310,000 compounds. About 14,000 (4.5%) showed an effect of 50% or more. Effects have a minus sign here. Some of the results follow.
Molecular target: human ether-à-go-go-related gene (hERG) potassium channel (human, UniProt Q12809)
Test: primary screen, population patch clamp on CHO cells stably expressing hERG
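Also: peak tail current of the secondary pulse compared with the same well before compound.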

Chain of human ether-à-go-go-related gene (hERG) potassium channel (Q12809 whole entry, looked up): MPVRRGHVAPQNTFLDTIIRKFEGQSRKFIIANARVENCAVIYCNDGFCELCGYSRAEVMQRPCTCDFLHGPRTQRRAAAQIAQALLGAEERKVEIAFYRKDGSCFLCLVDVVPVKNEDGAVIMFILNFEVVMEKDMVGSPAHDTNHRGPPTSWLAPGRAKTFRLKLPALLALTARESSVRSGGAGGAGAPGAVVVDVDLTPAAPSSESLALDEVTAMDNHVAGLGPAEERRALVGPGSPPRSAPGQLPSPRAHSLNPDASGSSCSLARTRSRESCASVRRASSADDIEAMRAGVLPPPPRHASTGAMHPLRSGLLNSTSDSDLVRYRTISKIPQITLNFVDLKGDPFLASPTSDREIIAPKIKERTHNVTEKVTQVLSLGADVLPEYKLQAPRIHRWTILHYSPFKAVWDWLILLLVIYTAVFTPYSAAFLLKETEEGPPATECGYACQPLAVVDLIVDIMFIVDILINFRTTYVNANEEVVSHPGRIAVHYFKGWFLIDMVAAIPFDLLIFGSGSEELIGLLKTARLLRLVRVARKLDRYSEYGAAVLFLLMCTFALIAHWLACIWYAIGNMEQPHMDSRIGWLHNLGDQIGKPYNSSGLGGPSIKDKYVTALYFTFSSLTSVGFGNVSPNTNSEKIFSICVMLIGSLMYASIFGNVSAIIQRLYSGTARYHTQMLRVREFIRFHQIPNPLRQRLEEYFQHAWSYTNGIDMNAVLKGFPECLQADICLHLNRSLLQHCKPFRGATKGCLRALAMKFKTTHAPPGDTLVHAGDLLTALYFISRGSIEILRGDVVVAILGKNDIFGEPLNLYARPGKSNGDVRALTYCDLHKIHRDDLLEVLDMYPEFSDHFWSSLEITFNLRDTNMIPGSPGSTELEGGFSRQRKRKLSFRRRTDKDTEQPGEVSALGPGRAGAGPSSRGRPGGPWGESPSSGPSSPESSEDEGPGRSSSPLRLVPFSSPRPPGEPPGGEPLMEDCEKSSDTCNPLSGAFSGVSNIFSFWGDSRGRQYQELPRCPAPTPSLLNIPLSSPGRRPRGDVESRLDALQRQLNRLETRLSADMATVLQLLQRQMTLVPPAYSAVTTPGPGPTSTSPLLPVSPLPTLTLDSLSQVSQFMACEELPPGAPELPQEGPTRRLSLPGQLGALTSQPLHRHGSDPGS

| Compound | hERG current change (%, negative = inhibition) at 10uM [%] |
| --- | --- |
| Cc1nc(C(F)(F)F)ccc1C(=O)Nc1ccccc1F | 11.7 |
| C[C@]12C[C@H](O)[C@@H]3c4ccc(O)cc4CCC3[C@@H]1CCC2=O (some centres unmarked) | 9.39 |
| CC[N+](C)(CC)CCC[n+]1c(-c2ccccc2)c2cc(N)ccc2c2ccc(N)cc21.[I-] | 7.78 |
| COc1ccc(CNc2nc3c(c(=O)[nH]c(=O)n3C)n2CCCc2ccccc2)cc1 | 11.8 |
| O=C(CSc1ccccc1)N1CCN(S(=O)(=O)c2cccs2)CC1 | -11 |
| COc1cc2c(cc1OC)C(c1cccc(Br)c1)NC(=O)C2 (centres unmarked) | 14 |
| Cc1cc(C)nc(Nc2ccccc2Cl)n1.Cl | -0.243 |
| O=C(NCc1ccco1)C1CC(c2ccc(C(F)(F)F)cc2)=NO1 (centres unmarked) | 7.87 |
| Cc1cccc(S(=O)(=O)Nc2nc3ccccc3nc2Nc2ccc3c(c2)OCO3)c1 | 4.97 |
| CC1(C)C2CC[C@]3(C)C(CC=C4[C@@H]5C[C@](C)(CO)CC[C@]5(C(=O)O)CC[C@]43C)[C@@]2(C)CC[C@@H]1O (some centres unmarked) | 7.74 |
| CCN(Cc1ccccc1)C(=O)CCS(=O)(=O)c1ccc2c(c1)NC(=O)CO2 | -12.9 |
| CC(=O)Cc1nsc(NC(=O)c2ccc(COc3cccc(C)c3)o2)n1 | 7.47 |
| Cc1nc(Sc2ccccc2)c(C#N)c(C)c1[N+](=O)[O-] | 8.6 |
| Cc1nnnn1/C(=C\c1ccccc1)C(=O)OCC(=O)N1CC2(C)CC1CC(C)(C)C2 (centres unmarked) | -11.1 |
| C=CCSc1nnc(-c2cc(Br)ccc2N)c(=O)[nH]1 | 17.4 |
| O=C(CN(C(=O)c1csnn1)c1ccc(Cl)cc1)NCCc1ccccc1 | -5.16 |
| CSc1ccccc1NC(=O)COc1ccccc1Cl | -1.2 |
| O=C(Oc1ccccc1-c1nnco1)c1ccccc1 | 0.787 |
| O=C1CSC(=S)N1/N=C/c1cc(Br)ccc1O | 20.6 |
| COc1cc(/C=N/Nc2nc(C)cc(=O)[nH]2)cc(OC)c1O | 22 |
| O=C(COc1coc(CN2CCN(c3ccccc3)CC2)cc1=O)Nc1ccccc1 | 7.23 |
| O=C(Nc1ccc2oc(=O)ccc2c1)c1ccc(-c2ccccc2[N+](=O)[O-])o1 | 9.83 |

| Compound | hERG current change (%, negative = inhibition) at 10uM [%] |
| --- | --- |
| COc1ccc(OC)c(NC(=O)[C@H]2CC=CC[C@H]2C(=O)O)c1 | 4.31 |
| CCc1ccc(NC(=O)Cn2c(=O)c3cccn3c3ccccc32)cc1 | 25 |
| CCOC(=O)Cn1c(=O)c2c(nc3n2CCCN3CCc2ccccc2)n(C)c1=O | -30.9 |
| CC1=C(C(=O)Nc2cccnc2)C(c2ccc3c(c2)OCO3)C2=C(CCCC2=O)N1 (centres unmarked) | 26 |
| Cc1cccc(C)c1NC(=O)CS(=O)CC(=O)Nc1ccc(N2CCOCC2)cc1 (centres unmarked) | 15.3 |
| Cc1ccc(-n2c(=O)[nH]c3c(oc4ccccc43)c2=O)cc1 | -0.961 |
| CC(=O)Nc1cccc(OCC(=O)NC(C)C(C)C)c1 (centres unmarked) | 9.05 |
| N#Cc1ccc(Cn2c(=O)c(C#N)c3n(c2=O)CCC3)cc1 | -37.7 |
| Cc1ccccc1OCC(=O)Nc1ccc(N2CCN(C(=O)C(C)C)CC2)c(Cl)c1 | -31.2 |
| Cc1cccc(-n2cc[nH]c2=S)c1 | 22.9 |
| O=c1[nH]cnc2c1nnn2Cc1ccccc1 | 17.2 |
| O=C(CCn1c(=S)oc2ccccc21)N1CCCCC1 | -7.1 |
| Cl.NCC(CC(=O)O)c1ccc(Cl)cc1 (centres unmarked) | 3.99 |
| COc1ccc(C2=NN(C(=O)CSc3ncccn3)C(c3cccc(OC)c3OC)C2)cc1 (centres unmarked) | -8.82 |
| NC(=O)c1ccc(-n2nnnc2SCC(=O)Nc2ccc(N3CCOCC3)c(Cl)c2)cc1 | 1.33 |
| Cc1cc(NC(=O)COC(=O)c2ccccc2S(=O)(=O)N(C)c2ccccc2)no1 | -12.6 |
| O=c1onc(-c2cccs2)n1Cc1ccccc1 | -2.74 |
| CCC(C)NC(=O)C(Cc1ccccc1)NS(=O)(=O)c1ccc2c(c1)CCC(=O)N2 (centres unmarked) | 20.8 |
| COc1ccc(N2C3=C(C(=O)CC(C)(C)C3)C(c3cnn(C)c3)C3=C2CC(C)(C)CC3=O)cc1 | 2.73 |
| Cc1nnc(SCC(=O)Nc2cccc(S(=O)(=O)NC3=NCCCCC3)c2)n1Cc1ccccc1 | 16.7 |
| Cc1ccccc1OCC(=O)NCCN(C)C | -1.74 |
| COc1ccc(CCN2CC(C(=O)N(C)Cc3ccc(C)o3)CCC2=O)cc1 (centres unmarked) | -6.77 |

Source: article PMC4336329 (PLoS ONE, 2015)
